The results in this text go back to publication PMC9911399, “Two distinct binding modes provide the RNA-binding protein RbFox with extraordinary sequence specificity”.

B1: ACCGAAC (DNA:RNA)
RNA: GGGAGACCGGAAUUCAGAUUGUCCACCGAACUUAAAUCCCGUCGUAGCCACCA
DNA 1: CAATCTGAATTCCGGTCTCCC
DNA 2: TGGTGGCTACGACGGGATT
B2: AUUAUCU (DNA:RNA)
RNA: B1 RNA with C26U, C27U, G28A, A29U, A30C, C31U
DNA 1: CAATCTGAATTCCGGTCTCCC
DNA 2: TGGTGGCTACGACGGGATT
B3: UCAUACA (DNA:RNA)
RNA: B1 RNA with A25U, C27A, G28U, A30C, C31A
DNA 1: CAATCTGAATTCCGGTCTCCC
DNA 2: TGGTGGCTACGACGGGATT
B4: AUUAUUG (DNA:RNA)
RNA: B1 RNA with C26U, C27U, G28A, A29U, A30U, C31G
DNA 1: CAATCTGAATTCCGGTCTCCC
DNA 2: TGGTGGCTACGACGGGATT
B5: ACUCGGU (DNA:RNA)
RNA: B1 RNA with C27U, G28C, A29G, A30G, C31U
DNA 1: CAATCTGAATTCCGGTCTCCC
DNA 2: TGGTGGCTACGACGGGATT
B6: AUACUAU (DNA:RNA)
RNA: B1 RNA with C26U, C27A, G28C, A29U, C31U
DNA 1: CAATCTGAATTCCGGTCTCCC
DNA 2: TGGTGGCTACGACGGGATT
B7: CUAUCUC (DNA:RNA)
RNA: B1 RNA with A25C, C26U, C27A, G28U, A29C, A30U
DNA 1: CAATCTGAATTCCGGTCTCCC
DNA 2: TGGTGGCTACGACGGGATT
B8: AGAUAUA (DNA:RNA)
RNA: B1 RNA with C26G, C27A, G28U, A30U, C31A
DNA 1: CAATCTGAATTCCGGTCTCCC
DNA 2: TGGTGGCTACGACGGGATT
B9: AUUAGCG (DNA:RNA)
RNA: B1 RNA with C26U, C27U, G28A, A29G, A30C, C31G
DNA 1: CAATCTGAATTCCGGTCTCCC
DNA 2: TGGTGGCTACGACGGGATT
B10: UAAUGUA (DNA:RNA)
RNA: GGGAGACCGGAAUUCAGAUUGUCCUAAUGUAUUAAAUCCCGUCGUAGCCACCA
DNA 1: CAATCTGAATTCCGGTCTCCC
DNA 2: TGGTGGCTACGACGGGATT
B11: GCAAUUA (DNA:RNA)
RNA: B10 RNA with U25G, A26C, U28A, G29U
DNA 1: CAATCTGAATTCCGGTCTCCC
DNA 2: TGGTGGCTACGACGGGATT
B12: CACCGCA (DNA:RNA)
RNA: B10 RNA with U25C, A27C, U28C, U30C
DNA 1: CAATCTGAATTCCGGTCTCCC
DNA 2: TGGTGGCTACGACGGGATT
B13: AUGAUGG (DNA:RNA)
RNA: B1 RNA with C26U, C27G, G28A, A29U, A30G, C31G
DNA 1: CAATCTGAATTCCGGTCTCCC
DNA 2: TGGTGGCTACGACGGGATT
B14: CCGCAUA (DNA:RNA)
RNA: B1 RNA with A25C, C27G, G28C, A30U, C31A
DNA 1: CAATCTGAATTCCGGTCTCCC
DNA 2: TGGTGGCTACGACGGGATT
B15: UCACCAA (DNA:RNA)
RNA: B10 RNA with A26C, U28C, G29C, U30A
DNA 1: CAATCTGAATTCCGGTCTCCC
DNA 2: TGGTGGCTACGACGGGATT
B16: GAAAAAG (DNA:RNA)
RNA: B1 RNA with A25G, C26A, C27A, G28A, C31G
DNA 1: CAATCTGAATTCCGGTCTCCC
DNA 2: TGGTGGCTACGACGGGATT
B17: GGAGCUU (DNA:RNA)
RNA: B10 RNA with U25G, A26G, U28G, G29C, A31U
DNA 1: CAATCTGAATTCCGGTCTCCC
DNA 2: TGGTGGCTACGACGGGATT
B18: CCGGUGU (DNA:RNA)
RNA: B1 RNA with A25C, C27G, A29U, A30G, C31U
DNA 1: CAATCTGAATTCCGGTCTCCC
DNA 2: TGGTGGCTACGACGGGATT
B19: UUAGACA (DNA:RNA)
RNA: B10 RNA with A26U, U28G, G29A, U30C
DNA 1: CAATCTGAATTCCGGTCTCCC
DNA 2: TGGTGGCTACGACGGGATT
B20: AAUCCAG (DNA:RNA)
RNA: B1 RNA with C26A, C27U, G28C, A29C, C31G
DNA 1: CAATCTGAATTCCGGTCTCCC
DNA 2: TGGTGGCTACGACGGGATT
B21: CCGUAAG (DNA:RNA)
RNA: B1 RNA with A25C, C27G, G28U, C31G
DNA 1: CAATCTGAATTCCGGTCTCCC
DNA 2: TGGTGGCTACGACGGGATT
B22: UUGAACC (DNA:RNA)
RNA: B1 RNA with A25U, C26U, C27G, G28A, A30C
DNA 1: CAATCTGAATTCCGGTCTCCC
DNA 2: TGGTGGCTACGACGGGATT
B23: CGGUAUA (DNA:RNA)
RNA: B10 RNA with U25C, A26G, A27G, G29A
DNA 1: CAATCTGAATTCCGGTCTCCC
DNA 2: TGGTGGCTACGACGGGATT
B24: GAGCUAC (DNA:RNA)
RNA: B1 RNA with A25G, C26A, C27G, G28C, A29U
DNA 1: CAATCTGAATTCCGGTCTCCC
DNA 2: TGGTGGCTACGACGGGATT
B25: UGGUAAU (DNA:RNA)
RNA: B1 RNA with A25U, C26G, C27G, G28U, C31U
DNA 1: CAATCTGAATTCCGGTCTCCC
DNA 2: TGGTGGCTACGACGGGATT
B26: AGUUCGG (DNA:RNA)
RNA: B1 RNA with C26G, C27U, G28U, A29C, A30G, C31G
DNA 1: CAATCTGAATTCCGGTCTCCC
DNA 2: TGGTGGCTACGACGGGATT
B27: UACGUGA (DNA:RNA)
RNA: B10 RNA with A27C, U28G, G29U, U30G
DNA 1: CAATCTGAATTCCGGTCTCCC
DNA 2: TGGTGGCTACGACGGGATT
B28: CAUCAAG (DNA:RNA)
RNA: B1 RNA with A25C, C26A, C27U, G28C, C31G
DNA 1: CAATCTGAATTCCGGTCTCCC
DNA 2: TGGTGGCTACGACGGGATT
B29: GUCCUCU (DNA:RNA)
RNA: B1 RNA with A25G, C26U, G28C, A29U, A30C, C31U
DNA 1: CAATCTGAATTCCGGTCTCCC
DNA 2: TGGTGGCTACGACGGGATT
B30: CAAAAGC (DNA:RNA)
RNA: B1 RNA with A25C, C26A, C27A, G28A, A30G
DNA 1: CAATCTGAATTCCGGTCTCCC
DNA 2: TGGTGGCTACGACGGGATT
B31: GACGAUC (DNA:RNA)
RNA: B1 RNA with A25G, C26A, A30U
DNA 1: CAATCTGAATTCCGGTCTCCC
DNA 2: TGGTGGCTACGACGGGATT

Substitutions are numbered along the chain they refer to; changes in the protein carry UniProt numbers. Some of the results follow.

This assay concerns the target T1, RBFOX1 RRM RbFoxmut (Fox-RRM*) (Homo sapiens, UniProt Q9NWB1 109-208, R118D;E147R;N151S;E152T).
T1 sequence: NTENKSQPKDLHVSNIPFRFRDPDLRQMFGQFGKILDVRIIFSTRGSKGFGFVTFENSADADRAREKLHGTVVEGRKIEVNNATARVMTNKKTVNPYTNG
Kind of assay: EMSA; HiTS-Eq, 1 nM pool, 10 min; buffer printed only for the single-RNA assays: 10 mM Tris pH 7.5, 150 mM NaCl, 3.4 mM EDTA, 0.001% NP-40, 30 C. The following applies: tags: His6 N-terminal (pET28a); label: 5' 32P. An outline of the steps: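 Purified RbFox RRM, wild type or mutant, was incubated for 10 min in 50 µL with 1 nM of a 5′-radiolabelled RNA pool carrying 7 randomized nucleotides, whose flanks were annealed to DNA oligonucleotides, over a series of increasing protein concentrations. Unbound RNA was resolved on 8% native PAGE, cut out, reverse-transcribed, barcoded by PCR and sequenced on an Illumina HiSeq 2500. Relative association constants were derived from changes in read counts for each RNA species versus the control reaction and normalised to the cognate motif.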
In general terms: Mobility shift assays separate free from complexed probe on a gel.
As to B1, the binding signal is 0.0692 KA relative to UGCAUGU. The same measure for B2: 0.106 KA relative to UGCAUGU; for B3: 0.112 KA relative to UGCAUGU; for B4: 0.14 KA relative to UGCAUGU. As for B5, the binding signal is 0.127 KA relative to UGCAUGU. For B6 the value was 0.101 KA relative to UGCAUGU; for B7, 0.065 KA relative to UGCAUGU; for B8, 0.165 KA relative to UGCAUGU.

For the molecule B9, the binding signal is 0.125 KA relative to UGCAUGU.

As to B10, the binding signal is 0.139 KA relative to UGCAUGU.

Turning to B11, the binding signal was 0.0955 KA relative to UGCAUGU.

Turning to B12, the binding signal was 0.149 KA relative to UGCAUGU. Turning to B13, the binding signal is 0.11 KA relative to UGCAUGU. For B14 the value was 0.122 KA relative to UGCAUGU. As to B15, the binding signal is 0.0801 KA relative to UGCAUGU. In the case of B16, the binding signal was 0.0819 KA relative to UGCAUGU.

As to B17, the binding signal is 0.0612 KA relative to UGCAUGU. The same measure for B18: 0.119 KA relative to UGCAUGU; for B19: 0.0604 KA relative to UGCAUGU.

B20: the binding signal is 0.103 KA relative to UGCAUGU. For B21 the value was 0.111 KA relative to UGCAUGU.

In the case of B22, the binding signal was 0.129 KA relative to UGCAUGU. For B23 the value was 0.0918 KA relative to UGCAUGU; for B24, 0.0827 KA relative to UGCAUGU. The same measure for B25: 0.121 KA relative to UGCAUGU; for B26: 0.109 KA relative to UGCAUGU. The same measure for B27: 0.0934 KA relative to UGCAUGU; for B28: 0.112 KA relative to UGCAUGU; for B29: 0.0929 KA relative to UGCAUGU. With B30, the binding signal is 0.0716 KA relative to UGCAUGU. On to B31, for which the binding signal was 0.0463 KA relative to UGCAUGU.
